Paper PMC3639976
Results are given in words; binding and its absence hold for the method and conditions named. Binding seen in cells or lysates may run through a third protein. Some entries that bind do so weakly or less than the wild type. For some assays here: Tags and fused reporters may be left off the sequences shown.

T1: GFP-TAB1 (UniProt Q15750)
T1 sequence: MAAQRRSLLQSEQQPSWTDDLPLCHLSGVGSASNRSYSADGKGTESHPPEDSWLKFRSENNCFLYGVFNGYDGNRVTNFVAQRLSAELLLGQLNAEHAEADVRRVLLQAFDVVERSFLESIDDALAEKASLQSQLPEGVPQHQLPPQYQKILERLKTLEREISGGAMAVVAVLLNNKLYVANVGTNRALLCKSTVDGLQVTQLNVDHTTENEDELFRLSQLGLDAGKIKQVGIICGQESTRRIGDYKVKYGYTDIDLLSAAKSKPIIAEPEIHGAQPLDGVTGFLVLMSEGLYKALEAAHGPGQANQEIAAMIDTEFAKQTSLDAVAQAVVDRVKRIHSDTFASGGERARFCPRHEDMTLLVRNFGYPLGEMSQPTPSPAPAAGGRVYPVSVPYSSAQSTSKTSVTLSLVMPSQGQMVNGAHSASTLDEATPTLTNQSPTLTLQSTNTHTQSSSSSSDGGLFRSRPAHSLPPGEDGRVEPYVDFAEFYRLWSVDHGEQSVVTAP


Tests used:
[1] = molecular target: T1, GFP-TAB1; test: co-IP; HEK293IL-1R cells transfected, GFP-TAK1 or GFP-TAB1 alone (no co-expressed MYC-TAB1); pulldown with GFP-Trap_A agarose beads, 2 h at 4°C, washes with lysis buffer (0,5 M NaCl); immunoblotting
[2] = molecular target: 3xFLAG-PPARβ/δ (mouse) (UniProt P35396); test: co-IP; HEK293T cells transfected, fractionated; cytoplasmic fraction; pulldown with an antibody against FLAG; immunoblotting

binding [1] | binding [2] | Binder
binds | – | 3xFLAG-PPARβ/δ 166–440 (domain or fragment, UniProt P35396 166-440) QHNPQLADLKAFSKHIYNAYLKNFNMTKKKARSILTGKSSHNAPFVIHDIETLWQAEKGLVWKQLVNGLPPYNEISVHVFYRCQSTTVETVRELTEFAKNIPNFSSLFLNDQVTLLKYGVHEAIFAMLASIVNKDGLLVANGSGFVTHEFLRSLRKPFSDIIEPKFEFAVKFNALELDDSDLALFIAAIILCGDRPGLMNVPQVEAIQDTILRALEFHLQVNHPDSQYLFPKLLQKMADLRQLVTEHAQMMQWLKKTESETLLHPLLQEIYKDMY
– | binds | endogenous TAK1 (protein, UniProt O43318 1-606) MSTASAASSSSSSSAGEMIEAPSQVLNFEEIDYKEIEVEEVVGRGAFGVVCKAKWRAKDVAIKQIESESERKAFIVELRQLSRVNHPNIVKLYGACLNPVCLVMEYAEGGSLYNVLHGAEPLPYYTAAHAMSWCLQCSQGVAYLHSMQPKALIHRDLKPPNLLLVAGGTVLKICDFGTACDIQTHMTNNKGSAAWMAPEVFEGSNYSEKCDVFSWGIILWEVITRRKPFDEIGGPAFRIMWAVHNGTRPPLIKNLPKPIESLMTRCWSKDPSQRPSMEEIVKIMTHLMRYFPGADEPLQYPCQYSDEGQSNSATSTGSFMDIASTNTSNKSDTNMEQVPATNDTIKRLESKLLKNQAKQQSESGRLSLGASRGSSVESLPPTSEGKRMSADMSEIEARIAATTAYSKPKRGHRKTASFGNILDVPEIVISGNGQPRRRSIQDLTVTGTEPGQVSSRSSSPSVRMITTSGPTSEKPTRSHPWTPDDSTDTNGSDNSIPMAYLTLDHQLQPLAPCPNSKESMAVFEQHCKMAQEYMKVQTEIALLLQRKQELVAELDQDEKDQQNTSRLVQEHKKLLDENKSLSTYYQQCKKQLEVIRSQQQKRQGTS
